The record followed here is PubChem BioAssay AID1159614 (National Center for Advancing Translational Sciences (NCATS), 2016).

Structures are written as SMILES. Out of some 45,000 compounds screened, about 65 (0.1%) were called active. The call rests on the fitted dose curve; in most records, active means well fitted activation curve with a large enough effect; inconclusive means small, poorly fitted or top-dose-only effect; inactive means no such curve, though single readings can be large or run the other way. Some of the results follow.

Sequence of UniProt P54803 (P54803 whole entry, looked up): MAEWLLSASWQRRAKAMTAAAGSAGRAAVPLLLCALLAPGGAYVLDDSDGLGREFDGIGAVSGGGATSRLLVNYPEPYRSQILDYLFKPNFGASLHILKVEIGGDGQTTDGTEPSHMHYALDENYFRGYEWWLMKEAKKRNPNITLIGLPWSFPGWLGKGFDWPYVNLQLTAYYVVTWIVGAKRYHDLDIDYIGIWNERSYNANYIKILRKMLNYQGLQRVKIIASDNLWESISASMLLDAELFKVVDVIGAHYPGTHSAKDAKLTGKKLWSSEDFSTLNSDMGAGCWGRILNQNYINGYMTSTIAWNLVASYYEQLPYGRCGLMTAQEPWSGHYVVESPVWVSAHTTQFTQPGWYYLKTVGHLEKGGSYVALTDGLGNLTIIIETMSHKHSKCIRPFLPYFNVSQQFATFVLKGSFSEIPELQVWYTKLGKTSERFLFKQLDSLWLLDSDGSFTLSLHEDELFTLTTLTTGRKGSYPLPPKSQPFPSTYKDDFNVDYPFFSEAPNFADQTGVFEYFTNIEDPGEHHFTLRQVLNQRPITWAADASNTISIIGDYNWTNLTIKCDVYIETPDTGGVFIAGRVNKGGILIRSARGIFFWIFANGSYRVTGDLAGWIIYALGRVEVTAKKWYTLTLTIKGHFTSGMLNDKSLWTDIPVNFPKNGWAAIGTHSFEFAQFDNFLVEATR

In the assay the target is Galactocerebrosidase (Homo sapiens) (UniProt P54803). Briefly: A Novel Cell-Based Assay to Identify Small Molecules for B -Galactocerebrosidase. Further: 0% is about no effect; nearly all actives have a fitted effect of over 65% in size. The following applies: 145M-Twi-hGALC-G270D cells, HMU-beta-Gal fluorescence, 48 h; series mostly up to 57.5 µM; activation: at the top concentration. Summed up:
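qHTS, 1536-well; 145M-Twi-hGALC-G270D cells (WT line also made) in DMEM/F12 + 10% FBS; compound incubation on live cells; HMU-β-gal 0.1 mM final, pH 5.2, NaTC; carbonate stop; fluorescence increase = enhanced residual activity.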
For the compound `O=C(c1ccc(Cl)cc1)N1CCC(c2ccncc2)CC1`, the “activation” value is inactive: -8.58%.
As to `CCN(CC)S(=O)(=O)c1ccc2nc(NC(=O)c3cccnc3)sc2c1`, the “activation” value was inactive: -13.3%.
For `O=C(Cn1c(=O)ccc2cc(S(=O)(=O)N3CCCC3)ccc21)NCc1ccc(Cl)cc1`, the “activation” value is inactive: -15.5%.
Take `CCC(CO)NC(=O)C(=O)Nc1c2c(nn1-c1ccc(F)cc1)CSC2` (stereo not drawn): the “activation” value is inactive: -2.62%.
As for `CCN(c1ncnc2c1cnn2-c1ccc(C)cc1)C1CCCCC1`, the figure is inactive: -5.25%; as for `Cc1cc(Nc2ccc(C)c(Cl)c2)n2nc(Cc3ccccc3)nc2n1`, inactive: -17.1%.
As for `CCOC(=O)c1cccc(NC(=O)c2cc3sccc3n2Cc2ccc(Cl)cc2)c1`, the figure is inactive: 10.4%.
For `CCOc1ccc(CCNC(=O)CCc2cn(Cc3ccccc3F)c3ccccc23)cc1OCC`, the “activation” value was inactive: -8.52%.
As for `CCOc1ccc(NC(=O)c2c(Nc3ccc(OC)cc3OC)sc(C(=O)c3ccc(Cl)cc3)c2N)cc1`, the figure is inactive: -28%.
Then `COCCn1c(=O)[nH]c2cc(C(=O)NCc3ccccc3Cl)ccc2c1=O`, with inactive: -4.34%; and `CCOc1ccc(NC(=O)CSc2nc(-c3ccc(OC)cc3)nc3c2Cc2c(CO)cnc(C)c2O3)cc1`, with inactive: -10.9%; and `CC(C)CN(CCCNC(=O)c1cc(=O)[nH]c2ccc(S(=O)(=O)N3CCCCCC3)cc12)CC(C)C`, with inactive: -4.47%.
Turning to `CC(=O)N1c2nc(C(C)C)nn2C2(CCCCC2)[C@@H]2CCCC[C@@H]21`, the “activation” value was inactive: -9.2%.
`CCOc1ccc2oc(=O)cc(CN3CCN(c4cc(C)ccc4C)CC3)c2c1`: the “activation” value is inactive: -7.7%.
Turning to `Cc1nc2nc(NC(=O)c3ccccc3F)[nH]n2c(=O)c1Cl`, the “activation” value was inactive: -18.2%.
Then `Cc1cccc(N2CCN(C(=O)c3cccn4c(=O)c5cc(Cl)ccc5nc34)CC2C)c1` (stereo not drawn), with inactive: -26.6%; and `O=C(Nc1ccc2oc(-c3ccc(O)c(Br)c3)nc2c1)c1cc2ccccc2o1`, with inactive: -4.29%; and `CC(=O)Nc1cccc(NC(=O)CN2C(=O)CCSc3ccccc32)c1`, with inactive: -0.183%.
As for `COc1cc(OC)c(NC(=O)C2=C(C)C(=O)OC23CCCCCC3)cc1Cl`, the figure is inactive: -8.11%.
As for `Cc1ccn2c(Nc3ccc(C(C)C)cc3)c(-c3cccs3)nc2c1`, the figure is inactive: -17.9%; as for `COc1ccc(C2C=C(c3cccc(OC)c3)Nc3c(C(=O)Nc4ccccc4)cnn32)cc1` (stereo not drawn), inactive: -10.1%.
With `CCn1c2c(c(=O)n3ncc(C(=O)Nc4cc(Cl)ccc4C)c13)CN(Cc1ccc(OC)cc1)CC2`, the “activation” value is inactive: -14.7%.
Consider `O=C(CSc1nnc(-c2cccc(Cl)c2)o1)N1CCc2ccccc21`, for which the “activation” value was inactive: -16.2%.
As for `O=C(NCCc1ccc(Cl)cc1)C1CCN(c2ncnc3c2nc2n3CCCCC2)CC1`, the figure is inactive: 19.5%; as for `COc1ccccc1-c1nnc(SCC(=O)Nc2ccccc2F)o1`, inactive: -0.968%.
Regarding `Cc1ccc(Cl)cc1NC(=O)CCC(=O)N1CC(C)Sc2ccccc21` (stereo not drawn), the “activation” value was inactive: -4.03%.
`CCC1CN(C(=O)N2CCC(C(=O)N3CCN(c4cccc(C)c4C)CC3)CC2)c2ccccc2O1` (stereo not drawn): the “activation” value is inactive: -9.06%.
As for `CC(=O)N1c2ccc(S(=O)(=O)NCC3CCC(C(=O)Nc4ccc(C)cc4)CC3)cc2CC1C` (stereo not drawn), the figure is inactive: -0.348%; as for `CN(Cc1ccco1)C(=O)c1ccc2c(c1)N(Cc1ccccc1F)C(=O)c1ccccc1S2`, inactive: -3.5%; as for `Cc1ccc(-n2c(=O)c3c4c(sc3n(CC(=O)c3ccc(Cl)cc3)c2=O)CCC4)cc1C`, inactive: -16.1%.
Then `COc1ccc2c(c1)c1c(c(=O)n(-c3ccc(F)c(Cl)c3)c(=O)n1CC(=O)N1CCCC1)n2C`, with inactive: 2.73%; and `Cc1c2cnn(-c3ccccc3)c(=O)c2c(C)n1CC(=O)NCCc1ccc(Cl)cc1`, with inactive: -15%; and `CCOc1ccc(NC(=O)c2cc(S(=O)(=O)N3CCCCCC3)cn2C)cc1`, with inactive: -16.5%.
As for `COC(=O)c1cc2sc(C)cc2n1CC(=O)Nc1ccc(C)c(C)c1`, the “activation” value was inactive: -40%.
As for `CCc1ccc(NC(=O)CN2CCCN(Cc3cccc(Cl)c3)S2(=O)=O)cc1`, the figure is inactive: -1.97%; as for `COc1cc(CNC(=O)c2ccc3c(c2)N(C)C(=O)C2CCCCN32)cc(OC)c1OC` (stereo not drawn), inactive: -8.19%.
On to `CC(=O)N1CCc2c(sc3c2c(=O)n(-c2ccccc2)c(=O)n3CC(=O)Nc2ccccc2)C1`, for which the “activation” value is inactive: -6.88%.
As for `Cc1nn(CC(=O)NCc2ccco2)c(=O)c2cc3ccccc3n12`, the “activation” value is inactive: -8.21%.
Then `CCc1ccccc1N(C)C(=O)c1cn(CC(C)C)c(=O)c2cc(OC)c(OC)cc12`, with inactive: -8.62%; and `CCOc1ccccc1-n1ccnc(NCc2ccc(F)cc2)c1=O`, with inactive: -2.28%.
As for `Cc1cccc(NC(=O)Nc2nnc(N(C)C3CCCCC3)s2)c1C`, the “activation” value was inactive: -14.2%.
As for `COc1ccc(-c2nn(CC(=O)NC3CCCC3)c3c2cnc2ccc(F)cc23)cc1`, the figure is inactive: -18.7%.
As for `O=C(CCC(=O)N1Cc2ccccc2Oc2ncccc21)Nc1ccc(Cl)cc1`, the “activation” value is inactive: -25.7%.
As for `COC(=O)c1ccc(Cl)cc1NC(=O)N1CC=C(c2c[nH]c3ccccc23)CC1`, the figure is inactive: -4.97%; as for `O=C(Cn1ncc2c(=O)oc3ccccc3c21)Nc1cc(F)ccc1F`, inactive: -0.0553%; as for `COc1ccc(N2CCN(C(=O)c3cc4c(-c5ccccc5F)nn(C)c4s3)CC2)cc1`, inactive: -1.05%.
As to `COc1ccc(OC)c(NC2=C(c3ccccc3)C(=O)c3ccccc32)c1`, the “activation” value was inactive: -20.7%.
Turning to `CC1CCN(S(=O)(=O)c2ccc3c(c2)N(CC(=O)NCc2ccccc2)C(=O)CO3)CC1`, the “activation” value was inactive: 9.68%.
